Sequences with one replicate were seen in a single cluster, so their values are uncertain.

The test system of the data set is ATP. As to the kind of experiment: switch fluorescence ratio, 500 uM ATP over buffer (Cy3 cluster intensity, sum of 5 cycles each) (fold (ratio)); higher = stronger signal-on switching upon ATP binding; sequences stand for … in TCGTCGGCAGCGTCAGATGTGTATAAGAGACAGTTTTTTTTTTTTTTTTTTTTTTTTT…TC. Particulars: aptamer strand: ATP DNA aptamer (quencher-CACCTGGGGGAGTATTGCGGAGGAAGG + anchor), 100 nM annealed; ATP concentration: 500 uM; one replicate. The gist of the method: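 Clusters with intensities outside 100-1000 RFU were excluded. The remaining Cy3-labelled switching-strand clusters on a modified Illumina MiSeq flow-cell had been annealed to 100 nM quencher-labelled ATP aptamer and imaged in selection buffer, then after 15 min with 500 uM ATP at 22 °C, for five cycles separated by NaOH stripping and re-annealing. The fluorescence ratio, averaged per switch-domain sequence, is each cluster's summed target-cycle Cy3 intensity over its summed buffer-cycle Cy3 intensity.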
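Further: ATP exposure 15 min at 22 °C before imaging.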

With AAGTCGGTGC, the switch fluorescence ratio amounted to 1.07.

Take CCGTTGACC: the switch fluorescence ratio amounted to 1.12. The figure for TCGTTGTGAT is 1.02; for AGTTAAATAT it is 1.01; for GTAACGCCAA it is 1.21. The figure for TGAATTCCGT is 0.981.

Regarding CTTAGGATCT, the switch fluorescence ratio amounted to 0.935. For CGATATCACA, the switch fluorescence ratio turned out to be 1.06. Take GGGCGTTGAG: the switch fluorescence ratio turned out to be 1.01.

Regarding TGAACTTATT, the switch fluorescence ratio came to 0.964. Turning to AAGGGACCGA, the switch fluorescence ratio came out at 1. Take GCCTATAGAT: the switch fluorescence ratio is 0.979. On to CTGGACGCCA, for which the switch fluorescence ratio stood at 1.08. The figure for ATGGCCGCAG is 1.15; for ACCCTTAACG it is 1.04; for GTATTCACGT it is 1.03. Consider GGCGCGGTCG, for which the switch fluorescence ratio was 0.923. The figure for ACGAGAGGGC is 1.07. With CATAGGGTCA, the switch fluorescence ratio was 0.966.

For the sequence TTATACCCTG, the switch fluorescence ratio is 1.07. For the sequence GTCGAACTGT, the switch fluorescence ratio was 0.995. GCACTCTTCT: the switch fluorescence ratio amounted to 1.06.

GGCGCGCGTA: the switch fluorescence ratio was 1.05. The figure for GTTTGCACAG is 0.999. The figure for GGAGTGTTCG is 1.01; for CAGGCGTCC it is 1.07.

As to TTCGGATGT, the switch fluorescence ratio was determined as 1.04.

Take AATAGTTCAA: the switch fluorescence ratio stood at 0.979.

As for GAGTCGGGGA, the switch fluorescence ratio stood at 1.02. TAGCGGTA: the switch fluorescence ratio was 1.09. Consider CAGTTTGGCG, for which the switch fluorescence ratio amounted to 0.973. The figure for ATGTCAGGTC is 0.985. The figure for AGGCCTGGGG is 0.957; for TCATATCCTT it is 0.998. As for CCATACTACA, the switch fluorescence ratio worked out at 1.11.

As to GAGTTGGCAT, the switch fluorescence ratio is 1. The figure for ATAACTAGCA is 0.988; for TTAGGGCTGT it is 0.991. As for ACCGTATTTT, the switch fluorescence ratio is 1.05. Regarding GTGCCTGATT, the switch fluorescence ratio was 0.982.

Consider AGGTTCGCAT, for which the switch fluorescence ratio was found to be 1.06. On to TCATGAGTCC, for which the switch fluorescence ratio is 1.06.

In the case of GAATACGATC, the switch fluorescence ratio was 1.08. The figure for GCCGCGGTTT is 1.63.

On to CGGTGGTTTC, for which the switch fluorescence ratio was found to be 1.01.

As to ATTGGGCCTG, the switch fluorescence ratio was 0.999. The figure for CTTATCGCGG is 0.988; for CTGAGCGGTC it is 1.12. The figure for CTGAAATCAA is 1.06; for GCTAAAGAGT it is 1.01; for AGTTTGGG it is 0.977. The figure for GCTGCAGGAT is 0.996. On to CGTACGCGGT, for which the switch fluorescence ratio came out at 1.25. The figure for GAAGTGTCGC is 1.01; for GGACAGTGGG it is 1.01; for ACGCATTTTT it is 2.11. Consider ATATTTGCT, for which the switch fluorescence ratio was 1.02.

Take AACGGCCTTC: the switch fluorescence ratio is 1.06. The figure for TTACTATGGA is 0.992. The figure for TCTCTTTACG is 1.03; for AAATATCGTG it is 0.987. The figure for ATTCATAGTG is 1.01; for CCACTAGGAA it is 1.02. Regarding TCTTCGTCGT, the switch fluorescence ratio was determined as 1.04. The figure for CACTGGGGGG is 1.02.

For the sequence TATCTAAGGA, the switch fluorescence ratio was 0.987. The figure for AAGTTTATGT is 1.

For the origin of these results see the supplement of paper PMC10126150.
